# Data taken from PubChem BioAssay (Tox21).
# Records with an inconclusive call do not appear. Unless noted, the call rests on the fitted dose curve. The source holds several records for some structures; these can differ, active in one and inactive in another. A number of entries come with more than one value. Only these are listed. There may be further records. The records of an entry repeat one measurement in other runs, samples, wells, individuals or studies. Brackets tell where a record comes from. Letters count within one entry.
# Legend:
# [1] = target: Gonadotropin-releasing hormone receptor (Homo sapiens) (UniProt P30968); assay: Human gonadotropin-releasing hormone receptor (GnRHR) small molecule agonists, calcium flux assay in GnRHR-HEK293 cells (AID 1920063); further: nearly all actives have a fitted effect of over 35% in size
# Summary of the method: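 Fluorescence kinetics (480 nm excitation, 540 nm emission; 3 min, 1 s steps) report calcium mobilisation in human GnRHR-HEK293 cells in agonist mode. Dye incubation: 1 h, 37 C.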
# [2] = target: KiSS-1 receptor (Homo sapiens) (UniProt Q969F8); assay: Human kisspeptin (KISS1R) small molecule agonists, calcium flux assay in KISS1R-HEK293 cells (AID 1920064; active means well fitted activation curve with a large enough effect in the repeat runs)
# Summary of the method: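 Measures KISS1R agonism through calcium-sensitive dye fluorescence in stably transfected HEK293 cells, read for 3 min after pin-tool compound delivery; 15-point titrations in triplicate.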
# [3] = p53 small molecule agonists, cell-based qHTS assay with rat liver microsomes (AID 1963578)
# Summary of the method: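 Fluorescence from a beta-lactamase reporter under a p53 response element was measured after cells had been incubated 16 h at 37 C with test compound and rat liver microsomes plus NADPH (0.5 mg/mL final each).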
# [4] = cAMP Responsive Elements (CRE) small molecule agonists, cell-based qHTS assay (AID 1963590)
# Text: U.S. Tox21 Program National Center for Advancing Translational Sciences [NCATS] Division of Preclinical Innovation [DPI] U.S. Environmental Protection Agency [EPA] National Institutes of Environmental Health Sciences [NIEHS] National Toxicology Program [NTP] U.S. Food and Drug Administration [FDA] Tox21 Assay Overview: CREB (cyclic-AMP Responsive Element Binding Protein) is a cellular transcription factor. It binds to certain DNA sequences called cAMP Responsive Elements (CRE) and regulates the transcription of the genes. […] This cell line can be used to find agonists/antagonists of the cyclic AMP signaling pathway. The activation of the report gene under culture conditions can be detected by fluorescence intensity. This cell line has been used to screen the Tox21 10K compound library to identify agonists that induce oxidative stress.
# Tox21 Assay Protocol Summary: CRE-bla Hek 293T cells were suspended in assay medium (DMEM containing 10% dialyzed FBS, 0.1 mM NEAA, 1 mM sodium pyruvate and 25 mM HEPES) and dispensed at 2,000 cells/5 uL /well into 1536-well black wall/clear bottom plates using a Multidrop Combi (ThermoFisher Scientific, Waltham, MA) dispenser. After the assay plates were incubated at 37 C/5% CO2 for 18 hrs, 23 nL of compounds dissolved in DMSO, positive controls or DMSO only was transferred to the assay plate by a pintool workstation (Kalypsys, San Diego, CA). […]
# Potency means the concentration at half of the fitted maximal effect.
# UniProt P30968, sequence (P30968 whole entry, looked up): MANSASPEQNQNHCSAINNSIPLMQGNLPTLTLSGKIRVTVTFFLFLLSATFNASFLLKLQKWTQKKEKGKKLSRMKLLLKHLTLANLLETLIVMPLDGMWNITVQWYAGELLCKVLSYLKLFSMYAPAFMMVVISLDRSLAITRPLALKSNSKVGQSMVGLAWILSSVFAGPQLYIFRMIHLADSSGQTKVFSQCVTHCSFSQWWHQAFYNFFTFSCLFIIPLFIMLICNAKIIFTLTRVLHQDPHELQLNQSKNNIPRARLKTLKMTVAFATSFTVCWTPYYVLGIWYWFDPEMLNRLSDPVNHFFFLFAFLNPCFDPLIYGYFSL
# UniProt Q969F8, sequence (Q969F8 whole entry, looked up): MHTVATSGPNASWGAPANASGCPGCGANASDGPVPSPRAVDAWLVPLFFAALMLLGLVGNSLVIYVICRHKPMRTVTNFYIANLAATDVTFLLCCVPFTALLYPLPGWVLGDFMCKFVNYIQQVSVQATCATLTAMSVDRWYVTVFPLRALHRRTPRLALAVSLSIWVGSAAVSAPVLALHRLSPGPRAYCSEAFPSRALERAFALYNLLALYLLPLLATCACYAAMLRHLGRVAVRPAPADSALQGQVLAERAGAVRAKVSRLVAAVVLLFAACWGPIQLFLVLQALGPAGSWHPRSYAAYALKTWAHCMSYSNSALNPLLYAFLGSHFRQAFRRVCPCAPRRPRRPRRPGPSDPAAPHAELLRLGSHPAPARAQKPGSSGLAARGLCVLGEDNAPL
smiles,measurement,setting,value
CCOc1ccc2c(c1)C(C)=CC(C)(C)N2,Potency,[1],active: 43.4 µM [sample A] and inactive [sample B]
same,Potency,[2],active: 54.7 µM [sample A] and inactive [sample B]
CC(=O)[C@H]1CC[C@H]2[C@@H]3CCC4=CC(=O)CC[C@]4(C)[C@H]3CC[C@]12C,Potency,[3],active: 643 nM [sample A] and inactive [sample B]
Cn1cnc([N+](=O)[O-])c1Sc1ncnc2nc[nH]c12,Potency,[1],active: 38.7 µM [sample A] and inactive [sample B]
CC(=O)CC(=O)Nc1ccccc1C,Potency,[1],active: 44.1 µM [sample A] and inactive [sample B]
Nc1ccc(N)c(Cl)c1,Potency,[1],inactive [sample A] and active: 8.71 µM [sample B]
same,Potency,[4],active: 7.68 µM [sample A] and inactive [sample B]
